Laboratory results from PubChem BioAssay AID2675 (National Center for Advancing Translational Sciences (NCATS), 2010).
Screen size: about 280,000 compounds; about 100 (0.036%) were called active. Inconclusive results, whose numbers are uncertain, are shown with a selection of clear calls. The call rests on the fitted dose curve; in most records, active means well fitted inhibition curve with a large enough effect in the signal ratio, with a control signal flat (not every such curve was filed as active); inconclusive means small, poorly fitted or top-dose-only effect, or effect the other way, or a change in a side signal; inactive means no such curve, though single readings can be large or run the other way; the % refers to the signal ratio. Potencies beside an inconclusive call are fits to weak or partial responses and may not hold up. A note “side channel” means that the fit belongs to a control or component signal, not to the main read-out.

target: Muscleblind-like protein 1 (Homo sapiens) (UniProt Q9NR56); test: qHTS Assay for Inhibitors of MBNL1-poly(CUG) RNA binding; conditions: TR-FRET MBNL1-His/biotin-(CUG)12 binding, 665/545 ratio; activity change, negative = inhibition: at 57.5 µM (top of the series)
UniProt Q9NR56, sequence (Q9NR56 whole entry, looked up): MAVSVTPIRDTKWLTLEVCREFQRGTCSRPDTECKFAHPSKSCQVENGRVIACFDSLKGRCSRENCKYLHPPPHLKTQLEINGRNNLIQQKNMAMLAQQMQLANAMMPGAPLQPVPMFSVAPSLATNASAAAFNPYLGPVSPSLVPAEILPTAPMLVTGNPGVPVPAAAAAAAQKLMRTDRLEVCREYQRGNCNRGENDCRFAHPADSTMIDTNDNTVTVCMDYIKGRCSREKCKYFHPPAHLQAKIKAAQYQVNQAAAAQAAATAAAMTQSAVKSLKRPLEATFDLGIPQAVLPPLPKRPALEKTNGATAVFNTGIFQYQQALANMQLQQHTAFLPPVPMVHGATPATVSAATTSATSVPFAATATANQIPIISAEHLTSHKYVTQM
Outline: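 His-tagged MBNL1 binding to biotinylated (CUG)12 RNA was measured by TR-FRET using terbium anti-His antibody (0.055 ng/ul final) and streptavidin-XL665 (5 nM final). Compounds were titrated 92 nM to 58 uM; 60 min at room temperature.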
On the % scale 0 is the no-effect control and ±100 the full control effect; potency means the concentration at half of the fitted maximal effect; tags describe the fitted curve by direction and shape or compound fluorescence and quenching.

Compound	Potency	activity change, negative = inhibition
O=C(N/N=C/C=C/c1ccc2c(c1)OCO2)c1ccc([N+](=O)[O-])cc1	inconclusive: 10 µM [quencher, side channel, partial curve]	–
O=C(NC(=S)NCC1CCCO1)c1cccc([N+](=O)[O-])c1 (stereo not drawn)	inconclusive: 0.158 µM [quencher, side channel, full curve, poor fit]	–
COc1ccc(N=c2scc(-c3ccc(S(=O)(=O)N4CCOCC4)cc3)n2CCCO)cc1	inconclusive: 4.47 µM [quencher, side channel, full curve]	–
O=C(O)CCCNc1c(C(=O)Nc2ccc(Cl)cc2)cc([N+](=O)[O-])cc1[N+](=O)[O-]	inconclusive: 25.1 µM [quencher, partial curve]	–
CCOC(=O)Cn1nc(C)c(NC(=O)c2ccc(Cl)c([N+](=O)[O-])c2)c1C	inconclusive: 15.8 µM [quencher, side channel, partial curve]	–
CCCOc1ccc(-c2csc(N)n2)cc1[N+](=O)[O-]	inconclusive: 11.2 µM [quencher, side channel, partial curve]	–
CC(=O)Nc1ccc(S(=O)(=O)NCCc2cn3nc(C)c(C)nc3n2)cc1	inconclusive: 25.1 µM [quencher, side channel, single point]	–
CC(=O)NC(Cc1ccccc1)Cc1ccccc1	–	inactive: -7.79%
COc1ccc(/C=N/n2c(=O)[nH]c3c([nH]c4ccc(C)cc43)c2=O)cc1CN1CCOCC1	inconclusive: 15.8 µM [quencher, side channel, partial curve]	–
CCCNC(=O)NC(=O)CSc1ncc(C(F)(F)F)cc1Cl	–	inactive: -0.382%
N#C/C(=C\c1ccc(-c2nc3ccccc3s2)o1)C(N)=O	inconclusive: 2.51 µM [quencher, side channel, full curve]	–
Nc1c2c(nc3ccc(Br)cc13)N(Cc1ccccc1)CC2	inconclusive: 22.4 µM [quencher, side channel, single point]	–
CCOC(=O)C(=O)c1c(C)cc2ccccn12	inconclusive: 35.5 µM [quencher, side channel, single point]	–
O=C1c2cccc3cccc(c23)C(=O)N1CC1CCN(CC(O)COCc2ccc3c(c2)OCO3)CC1 (stereo not drawn)	inconclusive: 10 µM [quencher, partial curve]	–
CCOC(=O)N1CCN(c2ccc(C(C)=O)cc2F)CC1	inconclusive: 50.1 µM [inhibitor, single point]	–
COc1cc(-c2nc(S(=O)(=O)c3ccc(C)cc3)c(N3CCOCC3)o2)cc(OC)c1OC	inconclusive: 0.794 µM [quencher, side channel, single point]	–
CC(=O)N(/C=C1\SC(=S)N(c2ccccc2)C1=O)c1ccccc1	inconclusive: 15.8 µM [quencher, side channel, partial curve]	–
O=C(CSc1nnc(-c2ccccc2)c(-c2ccccc2)n1)N1CCOCC1	inconclusive: 28.2 µM [quencher, side channel, partial curve]	–
COc1ccc(NC(=O)CSc2ccccc2)c([N+](=O)[O-])c1	inconclusive: 14.1 µM [quencher, side channel, partial curve]	–
Cc1ccc(-n2nc(CN3CCOCC3)c(-c3ccccc3)c2N)cc1Cl	inconclusive: 3.16 µM [quencher, side channel, single point]	–

Compound	Potency	activity change, negative = inhibition
COc1ccc(N2C(=O)C(Cl)=C(Nc3ccccc3O)C2=O)cc1	inconclusive: 17.8 µM [quencher, side channel, partial curve]	–
COC(=O)c1cc(C(=O)Nn2cnnc2)cc([N+](=O)[O-])c1	inconclusive: 14.1 µM [quencher, partial curve]	–
Cc1c(NC(=O)c2cccs2)cccc1-c1nc2ccccc2s1	inconclusive: 35.5 µM [fluorescent, side channel, partial curve]	–
COc1ccc(C2C(C(C)=O)=C(C)Nc3ncnn32)cc1[N+](=O)[O-] (stereo not drawn)	inconclusive: 20 µM [quencher, side channel, single point]	–
N#Cc1c(Cl)cccc1N1CCCC1	inconclusive: 0.501 µM [fluorescent, side channel, single point]	–
O=C(NCC(=O)N(Cc1ccccc1)C(C(=O)NC1CCCC1)c1ccco1)c1ccco1 (stereo not drawn)	inconclusive: 8.91 µM [quencher, side channel, single point]	–
Cc1ccc(-n2c(SCC(=O)NCCN3C(=O)CSC3=O)nnc2-c2ccccc2)cc1C	inconclusive: 14.1 µM [fluorescent, side channel, partial curve]	–
COc1cc(/C=N/NC(=O)c2ccc(COc3cc(C)ccc3C(C)C)cc2)cc(OC)c1O	inconclusive: 12.6 µM [inhibitor, single point]	–
COc1ccc(NC2=CC(c3ccc(F)cc3)N(c3ccc(OC)cc3)C2=O)cc1 (stereo not drawn)	–	inactive: -3.5%
COc1ccc(-n2nc([N+](=O)[O-])c(=NCc3ccco3)n2O)cc1	inconclusive: 12.6 µM [quencher, side channel, partial curve]	–
COc1ccccc1/C=C/C(=O)Nc1ccc(S(=O)(=O)Nc2cc(C)on2)cc1	inconclusive: 17.8 µM [quencher, side channel, partial curve]	–
CN(C(=O)c1cc(C(=O)N(C)c2ccccc2)cc([N+](=O)[O-])c1)c1ccccc1	inconclusive: 15.8 µM [quencher, partial curve]	–
O=C(NC1CCCCCC1)c1cc2ccccc2oc1=O	–	inactive: 6.14%
CCOCCCn1cnc2c(c1=O)c1nc3ccccc3nc1n2-c1ccc(C)cc1	inconclusive: 3.55 µM [quencher, side channel, full curve]	–
Cc1cc(C)c2c(c1)c1nnc(SCCN3CCCCC3)nc1n2C	inconclusive: 6.31 µM [quencher, side channel, partial curve]	–
Cc1ccc(C)c(Cn2nnc3c(=O)[nH]c(C4CCCN(C(=O)CC(C)C)C4)nc32)c1 (stereo not drawn)	–	inactive: -10.2%
Cc1ccc(NC2=C(Cl)C(=O)c3ccccc3C2=O)cc1	inconclusive: 2.24 µM [activator, full curve]	–
COc1ccc(NC(=O)CCC(=O)N/N=C/c2ccc([N+](=O)[O-])s2)cc1	inconclusive: 6.31 µM [quencher, side channel, partial curve]	–
CCN1C(=O)C2(C(C(=O)c3ccc(C)o3)=C(O)C(=O)N2CCCN2CCOCC2)c2ccccc21 (stereo not drawn)	inconclusive: 31.6 µM [quencher, side channel, single point]	–
O=c1cc(-c2ccc3c(c2)OCCO3)oc2ccc(Cl)cc12	inconclusive: 0.355 µM [fluorescent, side channel, partial curve]	–

Compound	Potency	activity change, negative = inhibition
Nc1nc(N)c(N=O)c(OCC2CCCCC2)n1	inconclusive: 12.6 µM [quencher, side channel, partial curve]	–
O=C(CCOc1ccccc1)N1CCN(c2ccc(O)cc2)CC1	–	inactive: -5.29%
COc1ccc(NC(=O)c2ccc(-c3ccc([N+](=O)[O-])cc3)o2)cc1OC	inconclusive: 12.6 µM [quencher, side channel, partial curve]	–
COc1nc(NCCN2CCOCC2)nc(Nc2ccc([N+](=O)[O-])cc2)n1	inconclusive: 3.98 µM [quencher, side channel, full curve]	–
CC1=CC(=O)C(C(C)C)=C/C1=N/OS(=O)(=O)c1ccccc1	–	inactive: 1.32%
O=[n+]1c2c(n([O-])c3cc(Br)ccc31)CCC2	inconclusive: 12.6 µM [quencher, side channel, partial curve]	–
CCOC(=O)/C=c1\sc2n(c1=O)CCN=2	inconclusive: 22.4 µM [quencher, side channel, single point]	–
COc1ccc(S(=O)(=O)Nc2ccc(S(=O)(=O)N(C)C)cc2)cc1[N+](=O)[O-]	inconclusive: 11.2 µM [quencher, side channel, partial curve, poor fit]	–
C=CCc1cccc2cc(C(=O)NNC(=O)c3ccncc3)c(=O)oc12	–	inactive: 3.86%
COc1ccc(-c2nnc(SC(C)C(=O)NNC(=O)c3ccc(C)cc3)o2)cc1 (stereo not drawn)	inconclusive: 0.1 µM [fluorescent, side channel, full curve]	–
COc1ccc(NC(=O)CCS(=O)(=O)c2cccc3nonc23)c(OC)c1	inconclusive: 10 µM [quencher, side channel, partial curve]	–
CC(C)c1ccc(/C=N/NC(=O)c2ccccn2)cc1	–	inactive: 6.8%
Cc1ccc(NC(=O)COC(=O)c2cc(-c3cccs3)nn2-c2ccccc2)cc1[N+](=O)[O-]	inconclusive: 6.31 µM [quencher, side channel, partial curve]	–
Cn1ccc(C(=O)NC(=S)Nc2ccc([N+](=O)[O-])cc2O)n1	inconclusive: 15.8 µM [quencher, side channel, partial curve]	–
CCN(CC)c1ccc(C(=S)N2CCN(c3ccccc3)CC2)cc1	–	inactive: 0.652%
O=C(CN1CCOCC1)NNc1c2ccccc2nc2ccccc12	inconclusive: 6.31 µM [quencher, side channel, partial curve]	–
N#Cc1nc(-c2cccs2)oc1NCCN1CCOCC1	–	inactive: 15.9%
COc1ccc(-c2cc(C(=O)NN3CCOCC3)c3ccccc3n2)cc1OC	inconclusive: 28.2 µM [quencher, side channel, single point]	–
